According to PMC12153800:
These are yes or no findings as the source states them, for the method shown. For part of these data: Binding seen in cells or lysates may run through a third protein. Some binding calls cover weakened binding; strength is not graded here.

Amino acid sequences for entries named in this document (tags omitted). Residues count along the entry.
UniProt Q9EQD0, residues 27-585: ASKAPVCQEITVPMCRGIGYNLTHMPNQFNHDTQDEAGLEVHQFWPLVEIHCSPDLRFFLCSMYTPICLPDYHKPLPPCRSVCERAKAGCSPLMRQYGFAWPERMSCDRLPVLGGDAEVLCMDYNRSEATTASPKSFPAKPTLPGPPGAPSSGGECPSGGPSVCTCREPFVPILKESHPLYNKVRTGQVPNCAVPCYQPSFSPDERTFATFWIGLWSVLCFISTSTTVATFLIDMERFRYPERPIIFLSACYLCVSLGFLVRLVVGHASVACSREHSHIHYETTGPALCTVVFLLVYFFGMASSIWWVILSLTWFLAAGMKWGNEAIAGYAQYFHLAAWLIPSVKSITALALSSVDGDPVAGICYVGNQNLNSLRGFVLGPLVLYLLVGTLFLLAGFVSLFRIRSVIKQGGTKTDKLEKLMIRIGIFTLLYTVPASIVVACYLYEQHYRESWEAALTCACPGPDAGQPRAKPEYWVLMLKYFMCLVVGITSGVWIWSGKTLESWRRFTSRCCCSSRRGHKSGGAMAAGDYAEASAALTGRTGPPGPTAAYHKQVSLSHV
UniProt Q61091, residues 28-685: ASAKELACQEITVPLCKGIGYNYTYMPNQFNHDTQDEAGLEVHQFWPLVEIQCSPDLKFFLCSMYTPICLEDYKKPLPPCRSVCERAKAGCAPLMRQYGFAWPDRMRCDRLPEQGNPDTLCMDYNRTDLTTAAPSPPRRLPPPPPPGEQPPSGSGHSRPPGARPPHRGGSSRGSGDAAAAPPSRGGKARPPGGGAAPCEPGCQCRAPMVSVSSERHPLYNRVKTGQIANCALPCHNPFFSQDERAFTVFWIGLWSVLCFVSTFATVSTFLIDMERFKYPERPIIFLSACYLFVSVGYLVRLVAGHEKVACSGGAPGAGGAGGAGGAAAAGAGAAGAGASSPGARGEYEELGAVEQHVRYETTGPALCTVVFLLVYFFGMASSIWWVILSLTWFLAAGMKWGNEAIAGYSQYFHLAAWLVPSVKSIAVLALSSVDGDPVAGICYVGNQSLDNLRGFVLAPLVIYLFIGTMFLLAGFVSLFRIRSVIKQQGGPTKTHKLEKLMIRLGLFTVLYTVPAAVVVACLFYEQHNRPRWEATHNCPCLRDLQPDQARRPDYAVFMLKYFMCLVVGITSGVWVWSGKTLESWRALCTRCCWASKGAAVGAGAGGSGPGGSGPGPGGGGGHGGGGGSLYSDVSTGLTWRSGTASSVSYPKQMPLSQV
UniProt P27467, residues 19-352: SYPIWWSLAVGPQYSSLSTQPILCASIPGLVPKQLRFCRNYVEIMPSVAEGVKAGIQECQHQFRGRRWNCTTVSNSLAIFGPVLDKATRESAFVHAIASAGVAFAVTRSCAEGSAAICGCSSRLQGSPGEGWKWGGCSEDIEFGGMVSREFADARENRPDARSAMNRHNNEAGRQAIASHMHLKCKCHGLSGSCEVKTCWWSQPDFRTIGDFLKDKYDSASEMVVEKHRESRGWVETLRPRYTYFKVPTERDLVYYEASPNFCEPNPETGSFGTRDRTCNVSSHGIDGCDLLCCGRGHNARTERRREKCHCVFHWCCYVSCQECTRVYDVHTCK
UniProt O00744, residues 29-389: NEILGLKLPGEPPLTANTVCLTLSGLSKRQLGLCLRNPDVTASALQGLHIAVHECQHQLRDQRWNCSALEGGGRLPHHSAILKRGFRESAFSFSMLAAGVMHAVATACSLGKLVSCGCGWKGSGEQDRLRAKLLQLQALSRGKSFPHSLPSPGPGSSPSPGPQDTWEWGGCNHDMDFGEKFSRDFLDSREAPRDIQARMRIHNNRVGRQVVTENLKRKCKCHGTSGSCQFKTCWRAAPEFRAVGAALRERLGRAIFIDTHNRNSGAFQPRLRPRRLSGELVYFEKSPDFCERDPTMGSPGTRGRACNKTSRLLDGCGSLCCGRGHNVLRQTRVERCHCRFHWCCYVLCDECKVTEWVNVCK

Tests used:
[1] = biological target: T1, HiBiT-FZD9-mCherry (mouse) (UniProt Q9R216); test: confocal microscopy of fluorescent ligand on live cells; U-2 OS cells stably expressing HiBiT-FZD1-10-mCherry incubated with eGFP-Wnt3a conditioned medium for 3 h, then imaged
T1 sequence: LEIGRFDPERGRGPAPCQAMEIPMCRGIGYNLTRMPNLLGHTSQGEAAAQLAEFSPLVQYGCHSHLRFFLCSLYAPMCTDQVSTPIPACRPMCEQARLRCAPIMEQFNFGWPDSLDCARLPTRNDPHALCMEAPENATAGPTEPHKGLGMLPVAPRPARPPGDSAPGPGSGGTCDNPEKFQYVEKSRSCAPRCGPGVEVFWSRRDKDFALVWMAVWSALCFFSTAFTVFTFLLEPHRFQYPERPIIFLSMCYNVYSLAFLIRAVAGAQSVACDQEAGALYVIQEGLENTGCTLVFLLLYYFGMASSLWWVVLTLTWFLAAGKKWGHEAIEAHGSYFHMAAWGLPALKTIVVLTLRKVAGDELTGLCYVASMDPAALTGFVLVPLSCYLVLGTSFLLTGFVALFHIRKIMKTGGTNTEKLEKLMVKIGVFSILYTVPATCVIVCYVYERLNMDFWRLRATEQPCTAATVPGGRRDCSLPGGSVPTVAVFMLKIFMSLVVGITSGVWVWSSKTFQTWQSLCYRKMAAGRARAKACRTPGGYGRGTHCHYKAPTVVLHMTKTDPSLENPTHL

[2] = biological target: HiBiT-FZD5-mCherry (NCI-H1703 cells) (mouse) (UniProt Q9EQD0); test: confocal microscopy of fluorescent ligand on live cells; NCI-H1703 cells stably expressing HiBiT-FZD(4,5,8,10)-mCherry incubated with eGFP-Wnt conditioned medium (1 h in the methods, 3 h in the legend of Figure 1A), then imaged
HiBiT-FZD3-mCherry = biological target: T2, HiBiT-FZD3-mCherry (UniProt Q61086); test: FRET or BRET; NanoBiT/BRET association kinetics on live U-2 OS cells stably expressing low levels of HiBiT-FZD-mCherry; LgBiT and Vivazine added; four concentrations of eGFP-Wnt conditioned medium (Wnt3a up to 15.2 nM, Wnt5a up to 17.3 nM, Wnt16 up to 24 nM); 37 °C, DMEM with 5% FBS and 10 mM HEPES, read every 80 s for 300 min; kinetic Kd
T2 sequence: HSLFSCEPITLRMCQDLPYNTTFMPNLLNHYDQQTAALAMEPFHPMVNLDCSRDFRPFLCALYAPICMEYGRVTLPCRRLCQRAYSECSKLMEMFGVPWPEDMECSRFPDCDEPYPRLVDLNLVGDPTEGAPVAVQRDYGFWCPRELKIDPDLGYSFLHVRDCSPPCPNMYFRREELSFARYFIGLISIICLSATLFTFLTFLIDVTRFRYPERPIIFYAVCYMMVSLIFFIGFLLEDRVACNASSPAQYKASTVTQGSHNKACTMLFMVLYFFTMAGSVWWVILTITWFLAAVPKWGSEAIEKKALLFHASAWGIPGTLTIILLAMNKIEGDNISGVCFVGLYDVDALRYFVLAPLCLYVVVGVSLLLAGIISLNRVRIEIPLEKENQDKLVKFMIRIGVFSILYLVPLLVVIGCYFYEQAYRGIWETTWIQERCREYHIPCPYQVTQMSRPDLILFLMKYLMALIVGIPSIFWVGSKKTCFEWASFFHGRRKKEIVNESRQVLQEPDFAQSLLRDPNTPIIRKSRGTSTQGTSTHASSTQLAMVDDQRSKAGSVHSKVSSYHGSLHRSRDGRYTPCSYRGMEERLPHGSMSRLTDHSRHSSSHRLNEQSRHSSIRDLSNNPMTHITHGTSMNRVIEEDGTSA

[3] = biological target: T3, HiBiT-FZD4-mCherry (mouse) (UniProt Q61088); test: as above
T3 sequence: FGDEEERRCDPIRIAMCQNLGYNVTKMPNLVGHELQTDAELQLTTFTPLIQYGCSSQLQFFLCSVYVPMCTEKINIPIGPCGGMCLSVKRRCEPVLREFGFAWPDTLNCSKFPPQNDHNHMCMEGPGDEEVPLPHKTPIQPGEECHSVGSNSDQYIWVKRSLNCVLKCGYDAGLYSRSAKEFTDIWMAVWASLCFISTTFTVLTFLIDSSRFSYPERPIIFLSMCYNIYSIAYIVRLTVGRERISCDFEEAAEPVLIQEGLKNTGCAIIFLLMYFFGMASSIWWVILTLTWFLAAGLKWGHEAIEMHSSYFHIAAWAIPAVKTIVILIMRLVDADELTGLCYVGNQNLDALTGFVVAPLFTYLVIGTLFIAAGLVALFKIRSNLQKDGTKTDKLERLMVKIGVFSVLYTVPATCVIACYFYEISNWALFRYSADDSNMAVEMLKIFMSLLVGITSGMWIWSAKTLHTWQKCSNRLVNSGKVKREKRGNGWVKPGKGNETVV

[4] = biological target: HiBiT-FZD5-mCherry (U-2 OS cells) (mouse) (UniProt Q9EQD0); test: as above
HiBiT-FZD6-mCherry = biological target: T4, HiBiT-FZD6-mCherry (UniProt Q61089); test: as above
T4 sequence: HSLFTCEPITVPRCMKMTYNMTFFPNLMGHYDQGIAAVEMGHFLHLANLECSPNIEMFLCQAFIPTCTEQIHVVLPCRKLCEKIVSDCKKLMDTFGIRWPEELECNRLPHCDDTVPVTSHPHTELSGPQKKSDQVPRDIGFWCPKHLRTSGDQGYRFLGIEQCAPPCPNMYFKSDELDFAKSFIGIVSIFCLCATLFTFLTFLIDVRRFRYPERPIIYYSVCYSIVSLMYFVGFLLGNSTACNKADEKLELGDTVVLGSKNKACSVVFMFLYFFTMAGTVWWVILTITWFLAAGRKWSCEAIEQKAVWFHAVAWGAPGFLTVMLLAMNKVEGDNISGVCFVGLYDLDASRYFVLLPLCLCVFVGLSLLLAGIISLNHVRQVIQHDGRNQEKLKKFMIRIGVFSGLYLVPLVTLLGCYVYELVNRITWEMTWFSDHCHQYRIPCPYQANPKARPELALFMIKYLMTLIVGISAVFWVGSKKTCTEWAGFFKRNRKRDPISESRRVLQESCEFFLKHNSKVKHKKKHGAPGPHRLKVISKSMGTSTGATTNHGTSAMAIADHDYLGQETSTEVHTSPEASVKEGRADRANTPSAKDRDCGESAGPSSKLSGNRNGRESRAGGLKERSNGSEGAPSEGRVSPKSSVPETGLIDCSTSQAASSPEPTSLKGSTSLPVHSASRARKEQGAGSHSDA

[5] = biological target: HiBiT-FZD8-mCherry (mouse) (UniProt Q61091); test: as above
[6] = biological target: T1, HiBiT-FZD9-mCherry (mouse); test: as above

With “eGFP-Wnt3a (from UniProt P27467 19-352) (ligand)” the binding [1] was “no binding”, the binding [2] was “binds” and the binding (HiBiT-FZD3-mCherry) was “no binding (tested: 15.2 nM)”. For the same substance, the binding [3] was “binds”, the binding [4] was “binds” and the binding (HiBiT-FZD6-mCherry) was “no binding (tested: 15.2 nM)”. For the same substance, the binding [5] was “binds” and the binding [6] was “no binding (tested: 15.2 nM)”.

“eGFP-Wnt10b (from UniProt O00744 29-389) (ligand)” was tested, and the binding [2] was “binds”.
